Measured values from PubChem BioAssay AID1963576 (National Center for Advancing Translational Sciences (NCATS), 2024).
The whole screen tested about 46,000 compounds, of which about 60 (0.1%) were called active. Roughly 3% stayed inconclusive and do not appear here. The call rests on the fitted dose curve; in most records, active means well fitted inhibition curve with a large enough effect; inconclusive means small, poorly fitted or top-dose-only effect; inactive means no such curve, though single readings can be large or run the other way. The list shows a part of the results.

experiment: Primary qHTS assay for Inhibitors of ovarian cancer metastasis using an organotypic tumor microenvironment (TME) model.; further: nearly all actives have a fitted effect of over 65% in size;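 on activity change, negative = inhibition: plate controls were DMSO wells for no effect and tomatine positive control wells for full effect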; conditions: SKOV3ip1-GFP adhesion/invasion on 3D omental model, fluorescence; series mostly up to 45.8 µM; activity change, negative = inhibition: at the top concentration
Summary of the method: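 qHTS, 4-pt dose (0.36-46 umol/L); SKOV3ip1-GFP, 1,200 cells/well, no FBS; primary omental fibroblast/mesothelial co-culture 48 h pre-grown; 2 h RT + 16 h 37 C; PBS wash, 4% PFA; GFP count 488/509 nm.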

Activity change, negative = inhibition, inactive:
Cc1ccc(C)c(Cn2c3ccccc3c3cnn(CC(=O)NCc4ccccc4)c(=O)c32)c1 -5.64%, Cc1cc(C)c(NC(=O)Nc2ccc3snnc3c2)c(C)c1 8.48%, Clc1ccccc1CNc1ncnc2c1c(-c1ccccc1)cn2-c1ccccc1 -3.58%, CCC(C)NC(=O)CSc1nc2c(sc3ccccc32)c(=O)n1Cc1ccccc1Cl (configuration not stated) 3.22%, Cc1cccc2nc(-c3cccc(NS(=O)(=O)c4ccccc4)c3)cn12 -8.47%, COc1cccc(N2CC(NC(=O)c3cccc(OC)c3OC)CC2=O)c1 (configuration not stated) -1.66%, CC(=O)c1ccc(NC(=O)COCc2cc(-c3ccco3)on2)cc1 10.9%, COCCCNC(=O)CSc1nc2c(sc3ccccc32)c(=O)n1CCCC(=O)NCCOC -4.63%, COc1ccc2c(c1)c1c(c(=O)n(-c3cccc(Cl)c3)c(=O)n1CC(=O)N1CCCC1)n2C 97.2%, Cc1ccc(-c2cc(C(=O)Oc3ccccc3)c3cc(C)ccc3n2)cc1 0.653%, CCOc1ccccc1NC(=O)Cn1ccn(Cc2ccc(C)cc2)c(=O)c1=O 9.02%, CCOC(=O)Cn1nc(C)c(NC(=O)COc2ccc(Cl)cc2C)c1C 4.14%, CCC1CCCCN1CCCNC(=O)CN1C(=O)CSc2ccc(S(=O)(=O)N3CCOCC3)cc21 (configuration not stated) -20.1%, Cc1cc(NC(=O)C2CCN(S(=O)(=O)c3ccc4[nH]c(=O)oc4c3)CC2)ccc1Br 10.6%, Clc1ccccc1CN1CCc2sccc2C1 -16.6%, CC(C)(C)C(=O)NCCc1csc2nc(-c3ccc(F)cc3)nn12 3.91%, Cc1ccc(Cl)cc1N1CCN(CCNC(=O)Nc2ccccc2Cl)CC1 112%, COC(=O)c1nc2n(n1)C(c1cc(OC)ccc1OC)C(C(=O)Nc1ccc(C)cc1C)=C(C)N2 (configuration not stated) 4.31%, Cc1ccc(NC(=O)C(Cc2c[nH]c3ccccc23)NC(=O)OCC(C)C)cc1 (configuration not stated) 11.6%, COc1cc(NC(=O)c2nc(-c3ccncc3)no2)cc(OC)c1OC 24.4%, CSc1cccc(NC(=O)C2CCN(C(=O)c3cnn(-c4ccccc4)c3-n3cccc3)CC2)c1 10.7%, COc1ccc2oc(-c3ccc(C)c(NC(=O)COc4cc(C)cc(C)c4)c3)nc2c1 -13.1%, Cc1ccc(Cl)cc1NC(=O)C(=O)NCC(c1cccnc1)N1CCc2ccccc21 (configuration not stated) 8.51%, Cc1ccc2oc3c(c(=O)c2c1)C1(C(=O)N(C)c2ccccc21)N(CCCO)C3=O (configuration not stated) 23%, Cc1ccc2c(c1)C(c1ccc(F)cc1)N(C(=O)c1ccc(OC(C)C)cc1)CC(=O)N2 (configuration not stated) -12.2%, Cc1ccccc1C(=O)Nc1cc(-c2ccc(Cl)cc2)nn1-c1ccccc1 -9.99%, O=C(c1ccccc1)N1c2ncnn2C2(CCCCC2)[C@@H]2CCCC[C@@H]21 -7.53%, COc1ccccc1NC(=O)c1sc2nc3c(cc2c1N)CCCCCC3 -17.1%, Cc1ccc(-n2nnc(C(=O)Nc3cc(F)ccc3F)c2C)cc1F 3.1%, CCOc1ccc(NC(=O)CSc2nc3c(oc4ccccc43)c(=O)n2CCOC)cc1 17.2%, Cc1ccn2c(=O)cc(COc3ccc(NC(=O)c4ccccc4F)cc3)nc2c1 -4.52%, Cc1ccc(NC(=O)C2CCN(c3cc(C)nc4c(-c5ccc(Cl)cc5)c(C)nn34)CC2)c(C)c1 8%, COc1ccc(C(=O)CSc2c(C(C)C)cnc3c2c(=O)n(C)c(=O)n3C)cc1 2.29%, COc1cc2[nH]c(=O)n(CCCC(=O)N3CCN(c4cccc(C(F)(F)F)c4)CC3)c(=O)c2cc1OC -15.7%, CC(=O)c1ccc(NC(=O)CSc2nc(-c3cccc(F)c3)nc3c2c(=O)n(C)c(=O)n3C)cc1 0.806%, Cc1ccc2nc(N(Cc3cccnc3)C(=O)CCS(=O)(=O)c3ccccc3)sc2c1 38.9%, c1cc(-c2sc(-c3ccncc3)c(-c3ccncc3)c2-c2ccncc2)ccn1 -3.35%, Cc1ccc(CN(Cc2ccco2)C(=O)COc2ccc(C(C)C)cc2)cc1 2.55%, COc1ccc(CNC(=O)c2ccc3c(c2)nc2n3CCOC2)c(OC)c1 6.8%, CCCCN(CC)CCCNC(=O)c1cc2c(=O)[nH]c3ccccc3c2s1 9.04%, Cc1cc(C)cc(NC(=O)CN2C(=O)c3ccccc3Sc3ncccc32)c1 5.05%, CN1C(C(=O)Nc2ccc(F)cc2F)=CC(c2ccc3c(c2)OCO3)=NS1(=O)=O 2.66%, CCOC(=O)C1CCN(C(=O)c2ccc3c(=O)n4nc(Nc5cc(C)ccc5C)sc4nc3c2)CC1 7.4%, CCOC(=O)C(C)NC(=O)c1c(C)oc2ncn(CC(C)C)c(=O)c12 (configuration not stated) 10.5%, Cc1ccc(CNC(=O)c2cc3c(=O)n(Cc4cccnc4)ccc3nc2C)cc1 0.177%, Cc1ccc(-c2cc(C(F)(F)F)c(C#N)c(SCC(=O)Nc3ccccc3)n2)cc1 -5.83%, COc1cccc(NC(=O)C2CCN(c3nn4cc(-c5ccc(F)cc5)nc4s3)CC2)c1 4.61%, Cc1cccc(C)c1OCc1nc2c3c(-c4ccccc4)c(-c4ccccc4)oc3ncn2n1 5.16%, Cc1cccc(CNC(=O)CCCn2c(=O)c3cccn3c3ccc(F)cc32)c1 -7.23%, CCNC(=O)c1nn(-c2ccccc2C)nc1CO -9.49%, CC(=O)C1=C(c2ccc(C)c(C)c2)N(C(C)=O)n2c(nnc2-c2ccc(Cl)cc2)S1 4.86%, Cc1csc2nc(COc3ccccc3NC(=O)c3ccc(C(C)(C)C)cc3)cc(=O)n12 54.5%, Cc1cccc2c1-c1sc(C(=O)N(C)c3cccc(C(F)(F)F)c3)cc1CO2 -6.45%, COC(=O)N1CCN(Cc2cccc(NC(=O)Nc3ccc(C)nc3)c2F)CC1 5.28%, Cc1c(NC(=O)c2nc3ccccc3nc2N2CCCCC2)cccc1[N+](=O)[O-] -0.922%, Cc1ccc(CN2CCN(CC(=O)Nc3ccc(C)c(C)c3)S2(=O)=O)cc1 2.28%, Cc1ccccc1-n1nc(CO)c(C(=O)NCc2cccs2)n1 -9.74%, N#Cc1cccc(NC(=O)C2CCN(S(=O)(=O)c3ccc4[nH]c(=O)ccc4c3)CC2)c1 0.597%, CN(C)CCCN1c2ccccc2CCc2ccc(Cl)cc21 -8.86%, CCOC(=O)c1cc(C)n(CC2CCC(C(=O)Nc3ccc(C)c(F)c3)CC2)c1C (configuration not stated) -9.73%, COc1ccc(N2CC(NC(=O)CCCc3ccccc3)CC2=O)cc1 (configuration not stated) 2.23%, CCOc1cc(CNC(=O)NC2COc3ccc(OC)cc3C2)cc(OCC)c1OCC (configuration not stated) -5.91%, COC(=O)c1ccccc1NC(=O)Nc1nnc(N2CCC(C)CC2)s1 12.7%, Cc1ccc(C(=O)Nc2ccc(-c3nc4ccccc4s3)cc2C)cc1C -4.51%, CCN(CC)C(=O)CSc1nc2cc3c(cc2c(=O)n1CCCCCC(=O)NCc1ccc(OC)cc1)OCO3 -3.32%, CCN(CCCNC(=O)c1ccc(Sc2ccc(F)cc2)c(NC(C)=O)c1)c1ccccc1 -6.73%, O=C(NCC(c1ccc2c(c1)OCO2)N1CCN(c2ccccc2)CC1)C(=O)Nc1cccc(F)c1 (configuration not stated) 2.76%, Cc1ccc(CSC2=Nc3ccccc3C3=NC(CCC(=O)NCc4cccs4)C(=O)N23)cc1 (configuration not stated) -3.4%, COc1ccc(C2=C(C)C(=O)N(Cc3ccc(C(=O)Nc4cccc(F)c4)cc3)S2(=O)=O)cc1 -3.82%, Cc1ccc(F)cc1NC(=O)Cn1c(=O)nc(-c2ccccc2F)c2cc(Cl)ccc21 -9.46%, Cc1ccc(-c2nc3c(C)cccn3c2Nc2ccccc2C)s1 2.53%, COc1ccc(-c2csc(-c3nc(-c4ccc(Br)s4)cs3)n2)cc1F -11.6%, COc1cc2c(-c3ccccc3O)nc3c(c(C)nn3-c3ccccc3)c2cc1OC -1.93%, N#Cc1ccccc1NC(=O)CSc1ncn[nH]1 8.78%, O=C(Nc1ccc(-c2nc3cc(NC(=O)c4ccccc4F)ccc3o2)cc1)c1ccccc1F 3.86%, COc1ccccc1C(=O)N1CCCCC1CCN1CCOCC1 (configuration not stated) 5.19%, Cc1cccc(NC(=O)Cn2cc(C(=O)C3CCCCC3)c3ccccc32)c1C -0.401%

outcome, inactive:
Cc1ccc(C)c(CSc2nc3ccncc3n2CC(=O)Nc2ccc(N(C)C)cc2)c1, Cc1ccccc1OCc1nnc(SCc2cc(=O)c3cccc(F)c3[nH]2)n1C, Fc1ccccc1Cn1c(-c2ccccc2)nc2ccccc21, Cc1ccc(CN(C(=O)COc2c(C)cccc2C)C2CCS(=O)(=O)C2)o1 (configuration not stated), COc1ccc(/C=C\C(=O)NC2CC(=O)N(c3ccccc3)C2)cc1OC (configuration not stated), CCc1ccc(-n2c(=O)c3c4c(sc3n(CC(=O)c3ccc(Cl)cc3)c2=O)CCC4)cc1, O=C(CCS(=O)(=O)c1cccc2nsnc12)Nc1ccc(F)cc1, Cc1nn(-c2ccc(N3CCOCC3)nn2)c(C)c1CCC(=O)NCc1ccc(F)cc1, Cn1ncc2nc(SCC(=O)Nc3ccc(Br)cc3F)n(Cc3ccccc3)c(=O)c21, COc1ccccc1N1CCN(C(=O)CN2C(=O)COc3ccc(S(=O)(=O)N4CCC(C)CC4)cc32)CC1, CCOc1ccc(CCNC(=O)CN2N=C(c3ccccc3)CCC2=O)cc1OCC, COc1ccc(OC)c(CCNC(=O)c2csc3c2CCCCC3)c1, CCn1cc(C(=O)N2CCN(c3ccc(C(C)=O)cc3)CC2)c2cc(OC)c(OC)cc2c1=O, Cc1ccccc1OC(=O)CSc1nnc(-c2ccc(F)cc2)o1, O=C(Cn1c(=O)n(-c2ccccc2Cl)c(=O)c2sc3ccccc3c21)NC1CCCCC1, Cc1c(Cl)cccc1NC(=O)C1CCCN(c2nnc(-n3c(C)ccc3C)s2)C1 (configuration not stated), O=C(NCc1ccc2c(c1)OCO2)c1ccc2c(c1)N(Cc1cccc(Cl)c1)C(=O)c1ccccc1S2=O (configuration not stated), CC1CCCN(c2nc3c(S(=O)(=O)c4ccc(C(C)C)cc4)nnn3c3ccsc23)C1 (configuration not stated), CCC1CCCCN1CCCNC(=O)c1c(O)nc2ccccn2c1=O (configuration not stated), COc1cccc(CN2C(=O)c3ccccc3Sc3ccc(C(=O)NCCc4ccc(C)cc4)cc32)c1
